Among all 46,000 compounds or so, about 60 (0.1%) were called active. Inconclusive results, whose numbers are uncertain, are shown with a selection of clear calls. The call rests on the fitted dose curve; in most records, active means well fitted inhibition curve with a large enough effect; inconclusive means small, poorly fitted or top-dose-only effect; inactive means no such curve, though single readings can be large or run the other way. Potencies of inconclusive entries are doubtful fits and often do not repeat.
Assay: Primary qHTS assay for Inhibitors of ovarian cancer metastasis using an organotypic tumor microenvironment (TME) model. Further: nearly all actives have a fitted effect of over 65% in size.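 On Potency: count of GFP cancer cells still attached after washing and fixation.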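 On activity change, negative = inhibition: plate controls were DMSO wells for no effect and tomatine positive control wells for full effect.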
Details: SKOV3ip1-GFP adhesion/invasion on 3D omental model, fluorescence; activity change, negative = inhibition: at 45.8 µM (top of the series); series mostly up to 45.8 µM
Summary of the method: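 A 3D layer of primary human omental fibroblasts, mesothelial cells, fibronectin and collagen I, grown 48 hr, received SKOV3ip1-GFP cells in serum-free medium plus compounds at 0.36-46 umol/L. After 2 hr RT and 16 hr 37 C, fixed adherent GFP cells were counted; normalized to DMSO and tomatine.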
Potency means the concentration at half of the fitted maximal effect; tags describe the fitted curve by direction and shape.

Potency, active:
CCN1CCC(N(Cc2ccc(F)cc2)C(=O)Nc2cc(Cl)ccc2C(=O)OC)CC1 11.2 µM

Potency, inconclusive:
COc1ccc(C(=O)n2nc(-c3ccc(Cl)cc3)nc2NCc2ccco2)cc1 15.8 µM [inhibitor, single point], CN(C)S(=O)(=O)c1ccc(C(=O)Nc2c(C(=O)Nc3ccc(F)cc3)oc3ccccc23)cc1 8.91 µM [inhibitor, partial curve, poor fit], CCCCc1nn2c(=O)cc(CN(CC)c3ccccc3)nc2s1 10 µM [inhibitor, partial curve, poor fit], Cc1ccc(NC(=O)c2cc(S(=O)(=O)NC3CCCCCC3)ccc2F)cc1F 35.5 µM [inhibitor, single point], O=C(Nc1ccc2nc(SCC(=O)N3CCc4ccccc43)sc2c1)c1cccc(F)c1 22.4 µM [inhibitor, single point], Cc1ccc(Nc2sc(C(=O)c3ccccc3)c(N)c2C(=O)Nc2ccc(Cl)cc2)cc1 15.8 µM [inhibitor, single point], Cc1ccc(CC(=O)Nc2ccc3c(c2)N(C)C(=O)c2ccccc2S3)cc1 35.5 µM [inhibitor, single point], O=C(CCS(=O)(=O)c1nc(-c2cccs2)cc(C(F)(F)F)n1)Nc1cc(Br)ccc1O 3.55 µM [inhibitor, full curve, poor fit], CC(C)c1ccc(NC(=O)Cn2cc(S(=O)(=O)Cc3cccc(Cl)c3)c3ccccc32)cc1 35.5 µM [inhibitor, single point], CCCCN1C(=O)c2[nH]nc(-c3ccccc3O)c2C1c1ccc(OCc2ccccc2)cc1 (centres undefined) 35.5 µM [inhibitor, single point], COc1ccc(-c2nc(SCC(=O)Nc3ccc4c(c3)OCO4)c(-c3ccc(F)cc3)[nH]2)cc1OC 35.5 µM [inhibitor, single point], Cc1ccc(C)c(NC(=O)Cn2c(-c3nonc3N)nc3ccccc32)c1 35.5 µM [inhibitor, single point], COC(=O)c1c(-c2ccc(Cl)cc2)noc1N1CCN(c2cccc(C)c2C)CC1 22.4 µM [inhibitor, partial curve, poor fit], Cc1ccc(C2c3c(-c4ccccc4O)n[nH]c3C(=O)N2CCc2ccccc2)cc1 (centres undefined) 35.5 µM [inhibitor, partial curve, poor fit], COc1ccc(NC(=O)CSc2nc(-c3ccc(OC)c(OC)c3)[nH]c2-c2ccc(C)cc2)cc1 35.5 µM [inhibitor, single point], Cc1ccc(C(=O)/C=C/c2cn(CC(O)CN3CCCCCC3)c3ccccc23)cc1 (centres undefined) 22.4 µM [inhibitor, single point], Cc1cc(SCC(=O)Nc2nsc(-c3ccc(C(C)(C)C)cc3)n2)nc2ccccc12 35.5 µM [inhibitor, single point], O=C(NCCN1CCCCC1)c1ccc(Cn2c(SCc3ccc(F)cc3)nc3cccnc32)cc1 12.6 µM [inhibitor, single point], O=C1Nc2cc(Cl)ccc2Oc2cc(Oc3ccccc3)ccc21 22.4 µM [inhibitor, single point], COc1cc(O)ccc1-c1nc2ccc(Br)cn2c1Nc1ccccc1C 35.5 µM [inhibitor, single point], CC(=O)Nc1ccc(C)cc1-c1nc2ccccc2n(Cc2cccc(Br)c2)c1=O 35.5 µM [inhibitor, single point], C1CCC(C(CC2CCCCN2)C2CCCCC2)CC1 (centres undefined) 37.2 µM [inhibitor, single point], Cc1nnc(N2CCC(C(=O)NCc3ccc(F)cc3)CC2)c2nn(-c3ccc(Cl)cc3)c(C)c12 35.5 µM [inhibitor, single point], CCc1ccccc1NC(=O)c1sc(-n2nc(C)c(Cc3ccc4c(c3)OCO4)c2C)nc1C 22.4 µM [inhibitor, single point], CCOc1ccc2oc(=O)cc(CN3CCN(c4ccccc4)CC3)c2c1 1 µM [inhibitor, full curve, poor fit], COc1ccc(Nc2cc(C)c3cc(NC(=O)c4cc(OC)cc(OC)c4)ccc3n2)cc1 35.5 µM [inhibitor, single point], Cc1ccc(N2CCN(C(=O)CCc3c(C)nc4c(c3C)c(=O)n(C)c(=O)n4C)CC2)c(C)c1 10 µM [inhibitor, partial curve, poor fit], CC(=O)C1=C(c2ccc(Cl)c(Cl)c2)N(C(C)=O)n2c(C)nnc2S1 35.5 µM [inhibitor, single point], Cc1ccc(-n2nc3c(N4CCCC(C(=O)NCCc5ccccc5)C4)nnc(C)c3c2C)cc1 (centres undefined) 14.1 µM [inhibitor, single point], COc1cccc(CNC(=O)CSc2c3c(nc4ccc(Cl)cc24)CCCC3)c1OC 35.5 µM [inhibitor, single point], COc1ccc(OC)c(NCc2cccn2-c2nnc(N3CCC(C)CC3)s2)c1 35.5 µM [inhibitor, partial curve, poor fit], COc1ccc(/C=C/C(=O)Nc2ccc3nc(N4CCC(C)CC4)cc(C)c3c2)cc1OC 22.4 µM [inhibitor, single point], CCOC(=O)c1ccc(Nc2nc(N)c3cc(OC)c(OC)cc3n2)cc1 8.91 µM [inhibitor, partial curve], CCCOCc1cc(CN2CCN(c3cccc(Cl)c3)CC2)c(O)c2ncccc12 25.1 µM [inhibitor, single point], CC(C=CC1=C(C)CCCC1(C)C)=CC=CC(C)=CC(=O)Nc1ccc(O)cc1 48.1 µM [inhibitor, single point], CSc1ccc(CC2C(=O)Nc3ccccc32)cc1 (centres undefined) 6.31 µM [inhibitor, partial curve, poor fit], COc1cc2c(Oc3ccc(NC(=O)C4(C(=O)Nc5ccc(F)cc5)CC4)cc3F)ccnc2cc1OCCCN1CCOCC1 20.9 µM [inhibitor, single point], CCCCOC(=O)c1ccc(Nc2nc3ccccc3c3nnc(C)n23)cc1 35.5 µM [inhibitor, single point], CCc1ccccc1NC(=O)Cn1nnc(C(=O)NCc2cccs2)c1N 12.6 µM [inhibitor, single point], COc1cc(NC(=O)c2cc(-c3ccc(Cl)c(Cl)c3)on2)cc(OC)c1OC 35.5 µM [inhibitor, single point]

Potency, inactive:
CC(C)=CC[C@@H](O)C1=CC(=O)c2c(O)ccc(O)c2C1=O, CCOC(=O)C1CCCN(C(=O)Cn2c(=O)cc(C)c3c(C)nn(C)c32)C1 (centres undefined), Clc1cc(Cl)cc(CNc2ncncc2-c2ccc3c(c2)OCO3)c1, Cc1oc(-c2cccc(Cl)c2)nc1CN1CCCC(C(=O)NCCc2ccc(Cl)cc2)C1 (centres undefined), O=C(CN1C(=O)COc2ccc(Cl)cc21)Nc1cccc(F)c1, Cc1ccc(C)c(N2CCN(C(=O)C3CCCN(S(=O)(=O)c4cccc5nonc45)C3)CC2)c1 (centres undefined), CCC1=C(c2ccc(C)cc2)S(=O)(=O)N=C1N1CCC(C(=O)NCc2ccc(C)cc2)CC1, CC(=O)Nc1ccc(S(=O)(=O)Nc2nc3n(n2)C(c2ccccc2)C=C(c2ccc(Cl)cc2)N3)cc1 (centres undefined), CCn1c(C(=O)N(C2CC2)C2CC2)cc2c3c(ncn3C)c(Nc3cc(C)n(C)n3)nc21, CC(=O)N[C@@H]1[C@H](O[C@@H]2c3ccc(c(Cl)c3)Oc3cc4cc(c3O[C@H]3O[C@H](CO)[C@@H](O)[C@H](O)[C@H]3NC(=O)CCCCCCCC(C)C)Oc3ccc(cc3Cl)C[C@H]3NC(=O)[C@H](N)c5ccc(O)c(c5)Oc5cc(O)cc(c5)[C@H](NC3=O)C(=O)N[C@H]4C(=O)N[C@H]3C(=O)N[C@@H]2C(=O)N[C@@H](C(=O)O)c2cc(O)cc(O[C@H]4O[C@H](CO)[C@@H](O)[C@H](O)[C@H]4O)c2-c2cc3ccc2O)O[C@H](CO)[C@@H](O)[C@@H]1O, CCc1ccc(NC(=O)Cn2nnc(C(=O)Nc3cc(C)ccc3OC)c2N)cc1, CCOc1ccc(N(CC)C(=O)c2cc3c(s2)-c2ccc(Cl)cc2SC3)cc1, O=C(O)c1cn(C2CC2)c2cc(N3CCNCC3)c(F)cc2c1=O, Cc1ccc(C(CC(=O)NCC2(c3ccccc3)CCCC2)c2ccccc2)c(O)c1 (centres undefined), CS[C@H]1SC[C@@H]2C(=O)N(C)[C@H](C(C)C)C(=O)OC[C@H](NC(=O)c3cnc4ccccc4n3)C(=O)N[C@H](C)C(=O)N(C)[C@@H]1C(=O)N(C)[C@H](C(C)C)C(=O)OC[C@H](NC(=O)c1cnc3ccccc3n1)C(=O)N[C@H](C)C(=O)N2C, Cc1ccc2oc(=O)c(-c3nc4ccc(C)cc4[nH]3)cc2c1, O=c1c2cc3c(nc2ncn1Cc1ccc(Cl)cc1)CCCC3

Activity change, negative = inhibition, inconclusive:
CCOc1ccc(NC(=O)Cn2c(=O)c(CNc3ccc(OC)cc3)cc3ccc(OC)cc32)cc1 -33.3% [inhibitor]
